Reference: article PMC4207660, “Identification and Characterization of Hundreds of Potent and Selective Inhibitors of Trypanosoma brucei Growth from a Kinase-Targeted Library Screening Campaign” (PLoS Neglected Tropical Diseases, 2014)
Converted amounts (≈) assume the structure as drawn.

Tests used:
[1] = biological target: T1, Human Serum Albumin (HSA) (Homo sapiens, UniProt P02768); assay: Protein binding assay (HPLC stationary phase), HSA; type: in vitro ADME; conditions: Measured
T1 construct: purchased Chiral Technologies, France
Procedure: Chemically bonded Human Serum Albumin (HSA) and Alpha-1-acidglycoprotein HPLC stationary phases (Chiral Technologies, France) were used for measuring compounds' binding to plasma proteins, applying linear gradient elution up to 30% iso-propanol. The run time was 6 min, including the re-equilibration of the stationary phases with the 50 mM pH7.4 ammonium acetate buffer. The obtained gradient retention times were standardised using a calibration set of mixtures as described in the references. The average standard error of the assay depends on the binding strength and kinetics of the compounds.

[2] = CLND kinetic solubility assay; type: physicochemical; conditions: phosphate buffered saline, pH 7.4, aqueous buffer, kinetic from dmso stock; Measured; read-out: Aq Sol
Procedure: 5 µL of 10 mM DMSO stock solution was diluted to 100 µL with pH 7.4 phosphate buffered saline, equilibrated for 1 hour at room temperature, filtered through Millipore MultiscreenHTS-PCF filter plates (MSSL BPC). The filtrate was quantified by suitably calibrated flow injection Chemi-Luminescent Nitrogen Detection.

[3] = system: T. brucei brucei parasites (Lister 427 strain); assay: Dose response growth inhibition assay (resazurin, 72 h); type: cell-based; conditions: Trypanosoma brucei; T. b. brucei growth inhibition; read-out: Tbb pEC50 (converted)
Procedure: Greiner sterile black clear bottom 384-well assay plates were pre-dispensing with 200 nL of compound in each well, from master plates at 1 mM (100% DMSO) containing selection from the GSK compound collection. Controls of 0% response (control 1, 200 nL of 100%DMSO) and 100% response (control 2, 200 nL of 1 mM pentamidine) were included in each assay plate in columns 6 and 18, respectively. Plates containing 200 nL of 100% DMSO were included randomly in the assay, to assess quality through all process. […] After this period, 10 µL of 200 µM resazurin solution in prewarmed HMI-9 were added to each well, and plates were allowed to incubate 2 hours more prior fluorescence reading in a Wallac EnVision Multilabel Plate Reader (Perkin-Elmer). Raw fluorescent data from the Envision plate reader were uploaded into GSK HTS database (ActivityBase). Activity of each well was normalized as a percentage of inhibition per-plate basis using the following equation: [drawing 1]
For dose-response experiments, serial compound dilutions of selected hits from the primary campaign were plotted against compound concentration. Dose response master plates were prepared by 3-fold dilutions (starting with 10 mM DMSO stock solutions), providing 11 concentrations. From these master plates, 200 nL per well was stamped in final assay plates, including the same controls describe in the primary single shot assay. Compounds were dispensed as serial dilution curve format, with 11 points at 3-fold dilution and 40 µM as starting top concentration (n = 2). Growth inhibition assay was performed as described in previous assay.
A 4-parameter equation describing a sigmoidal dose-response curve was then fitted with an adjustable baseline using ActivityBase XE Runner software. Fitting of dose-response curves and EC50 determination were normalized as percentage of inhibition based on controls. The curve-fit model was based on a 4-parameter equation: [drawing 2]
Trypanosome cell culture. […]

Row | Structure (SMILES) | HSA % binding [1] [%] | solubility kinetic at 1 h [2] [µM] | EC50 [3] [µM]
1 | NS(=O)(=O)c1cccc(-c2ccc3nccc(-c4cn[nH]c4)c3c2)c1 [NEU-0001113] | 95.92 | 35 (≈ 12.3 µg/mL) | 0.398
2 | Nc1cc(-c2ccc3ncnc(N4CCOCC4)c3c2)cnc1N [NEU-0001111] | 82.4 | ≥ 540 | 0.126
3 | COc1ncc(-c2ccc3nc(N)c(C#N)cc3c2)cc1NS(=O)(=O)c1ccc(F)cc1F [NEU-0001112] | 96.63 | 21 (≈ 9.82 µg/mL) | 0.501
